Source: the supplement of paper PMC10369915
The other results are listed elsewhere or left out. Rule as the data show it: active = 3.2 or more and inactive = the rest. Most of these values are background signal.

Experiments:
Test in all cases: enrichment score (SH2-bound / input frequency) (ratio); bacterial display of known human phosphotyrosine sites (pTyr-Var adds point mutants) read by sequencing; higher = stronger binding; tyrosines were phosphorylated by kinases first
Details in all cases: peptide library: Human pTyr
SHP2 C-SH2 domain E139D = target: SHP2 C-SH2 domain E139D
[1] = target: SHP2 C-SH2 domain wild-type
SHP2 N-SH2 domain L43F = target: SHP2 N-SH2 domain L43F
SHP2 N-SH2 domain T42A = target: SHP2 N-SH2 domain T42A
SHP2 N-SH2 domain T52S = target: SHP2 N-SH2 domain T52S
[2] = target: SHP2 N-SH2 domain wild-type
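Also: displayed peptides selected on beads carrying the immobilized SH2 domain, with library peptides lacking any tyrosine serving as negative controls.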

| Binder | enrichment score (SHP2 C-SH2 domain E139D) | enrichment score [1] | enrichment score (SHP2 N-SH2 domain L43F) | enrichment score (SHP2 N-SH2 domain T42A) | enrichment score (SHP2 N-SH2 domain T52S) | enrichment score [2] |
| --- | --- | --- | --- | --- | --- | --- |
| KPAQDPLYDVPNASG [RIN1_HUMAN_36] | inactive: 0.891 | inactive: 0.627 | inactive: 0.909 | inactive: 0.747 | inactive: 0.716 | inactive: 0.824 |
| AAELVNNYGKGWSLK [RAPSN_HUMAN_196] | inactive: 0.764 | inactive: 1.04 | inactive: 0.601 | inactive: 0.823 | inactive: 1.4 | inactive: 1.24 |
| NYRKVHPYEDSDSSE [RIOK3_HUMAN_122] | inactive: 0.882 | inactive: 0.801 | inactive: 0.662 | inactive: 0.964 | inactive: 1.05 | inactive: 1.16 |
| FTLPVHFYGHVEHTS [PYGM_HUMAN_204] | inactive: 2.63 | inactive: 2.52 | inactive: 2.18 | inactive: 2.26 | inactive: 2.7 | inactive: 2.74 |
| AQREGAKYVSHGATG [ASSY_HUMAN_113] | inactive: 0.809 | inactive: 0.672 | inactive: 0.726 | inactive: 0.702 | inactive: 0.682 | inactive: 0.831 |
| DLNNGKFYVGVCAFV [RAD52_HUMAN_104] | inactive: 2.02 | inactive: 1.57 | inactive: 1.38 | inactive: 1.66 | inactive: 1.44 | inactive: 2.27 |
| DRRFRGRYRSPASGP [RBM39_HUMAN_95_YA] | inactive: 0.586 | inactive: 0.65 | inactive: 0.633 | inactive: 0.752 | inactive: 0.471 | inactive: 0.562 |
| AHAWPSPYKDAEVKK [RAI3_HUMAN_347_YA] | inactive: 1.45 | inactive: 1.32 | inactive: 1.29 | inactive: 0.959 | inactive: 1.44 | inactive: 1.33 |
| GDTLAAPYSTHFQLQ [RAI3_HUMAN_320_YA] | inactive: 0.725 | inactive: 0.667 | inactive: 0.548 | inactive: 0.503 | inactive: 0.614 | inactive: 0.582 |
| MAVRIQAYDALECSA [RHOB_HUMAN_154_YA] | inactive: 1.54 | inactive: 1.04 | inactive: 1.36 | inactive: 1.18 | inactive: 1.34 | inactive: 1.43 |
| FAAKMPRYRGAALAR [ASAP3_HUMAN_34] | inactive: 0.815 | inactive: 0.889 | inactive: 1.08 | inactive: 0.825 | inactive: 0.944 | inactive: 0.897 |
| SRKVGPGYLGSGGSR [RET_HUMAN_826] | inactive: 0.901 | inactive: 0.644 | inactive: 0.988 | inactive: 0.682 | inactive: 0.589 | inactive: 0.815 |
| DPKSYEAYVLNIVRF [AT1B1_HUMAN_101] | inactive: 1.59 | inactive: 1.45 | inactive: 1.57 | inactive: 1.58 | inactive: 1.58 | inactive: 1.71 |
| TWIENKLYGRISHAF [RET_HUMAN_586] | inactive: 1.41 | inactive: 1.37 | inactive: 1.31 | inactive: 1.48 | inactive: 0.855 | inactive: 1.83 |
| TNTGFPRYPNDSVAA [RET_HUMAN_1090_YA] | inactive: 0.652 | inactive: 0.746 | inactive: 0.636 | inactive: 0.647 | inactive: 0.648 | inactive: 0.637 |
| EGKTKEVYELLDSPG [PUR6_HUMAN_22] | inactive: 0.739 | inactive: 0.818 | inactive: 0.646 | inactive: 0.762 | inactive: 0.823 | inactive: 0.783 |
| ILRCNAEYVSSTLSL [RGMC_HUMAN_46] | inactive: 1.36 | inactive: 1.35 | inactive: 1.31 | inactive: 1.32 | inactive: 1.45 | inactive: 1.66 |
| NARKVHPYEDSDSSE [RIOK3_HUMAN_122_YA] | inactive: 0.871 | inactive: 0.761 | inactive: 1.13 | inactive: 0.95 | inactive: 0.866 | inactive: 0.786 |

| Binder | enrichment score (SHP2 C-SH2 domain E139D) | enrichment score [1] | enrichment score (SHP2 N-SH2 domain L43F) | enrichment score (SHP2 N-SH2 domain T42A) | enrichment score (SHP2 N-SH2 domain T52S) | enrichment score [2] |
| --- | --- | --- | --- | --- | --- | --- |
| EEKARMIYEDYISIL [RGS17_HUMAN_137] | inactive: 0.913 | inactive: 1.19 | inactive: 1.13 | inactive: 1.14 | inactive: 1.25 | inactive: 1.25 |
| KSSGEIVYCGQVFEK [RL18A_HUMAN_63] | inactive: 1.35 | inactive: 1.16 | inactive: 1.21 | inactive: 1.53 | inactive: 1.4 | inactive: 1.48 |
| VKHFTNPYCNIALNS [RASA1_HUMAN_615_YA] | inactive: 1.52 | inactive: 1.84 | inactive: 1.43 | inactive: 1.39 | inactive: 1.32 | inactive: 1.53 |
| SANGHVSYSAVSREN [PVR_HUMAN_398] | inactive: 2.11 | active: 5.71 | inactive: 0.794 | inactive: 0.871 | inactive: 0.535 | inactive: 0.643 |
| MAVRIQAYDYLECSA [RHOB_HUMAN_154] | inactive: 1.74 | inactive: 1.87 | inactive: 1.24 | inactive: 1.67 | inactive: 1.5 | inactive: 1.72 |
| EETGDTLYAPASTHF [RAI3_HUMAN_317_YA] | inactive: 0.703 | inactive: 0.488 | inactive: 0.712 | inactive: 0.655 | inactive: 0.742 | inactive: 0.718 |
| GGNYRDNYDNGGGGG [RBM3_HUMAN_155] | inactive: 0.784 | inactive: 0.565 | inactive: 0.77 | inactive: 0.492 | inactive: 0.748 | inactive: 0.691 |
| DGFDPSDYAEPMDAV [RHG35_HUMAN_1087] | inactive: 0.938 | inactive: 0.765 | inactive: 0.849 | inactive: 1.01 | inactive: 0.893 | inactive: 0.975 |
| SKMQQNGYENPTYKF [A4_HUMAN_757] | inactive: 0.964 | inactive: 0.991 | inactive: 0.893 | inactive: 0.826 | inactive: 0.927 | inactive: 1.24 |
| SALYEDRYLLGTSLA [ASSY_HUMAN_87] | inactive: 0.514 | inactive: 0.561 | inactive: 0.621 | inactive: 0.494 | inactive: 0.538 | inactive: 0.512 |
| SPKSQDSYPGSPSLS [RBP10_HUMAN_362] | inactive: 0.593 | inactive: 0.889 | inactive: 0.695 | inactive: 0.546 | inactive: 0.58 | inactive: 0.568 |
| ASPEAQDYVALEGTQ [RHG35_HUMAN_308_YA] | inactive: 0.71 | inactive: 0.669 | inactive: 1.01 | inactive: 0.897 | inactive: 0.776 | inactive: 0.92 |
| AQAFPVSYSSSGARR [RET_HUMAN_687] | inactive: 0.538 | inactive: 0.513 | inactive: 0.615 | inactive: 0.505 | inactive: 0.816 | inactive: 0.812 |
| DVAEEDSYVKRSQGR [RET_HUMAN_905_YA] | inactive: 0.619 | inactive: 0.519 | inactive: 0.591 | inactive: 0.622 | inactive: 0.621 | inactive: 0.892 |
| AHAWPSPYKDYEVKK [RAI3_HUMAN_347] | inactive: 0.671 | inactive: 0.889 | inactive: 1 | inactive: 0.927 | inactive: 0.943 | inactive: 0.963 |
| CAKNRPDYVSEEEED [RBP2_HUMAN_2666_YA] | inactive: 1.42 | inactive: 1.17 | inactive: 1.27 | inactive: 1.07 | inactive: 0.928 | inactive: 1.22 |
| NTGAKNLYIISVKGI [RL23_HUMAN_38] | inactive: 2.62 | inactive: 2.51 | inactive: 2.53 | inactive: 2.15 | inactive: 3 | inactive: 3.16 |
| WPSPYKDYEVKKEGS [RAI3_HUMAN_350] | inactive: 1.18 | inactive: 1.05 | inactive: 0.867 | inactive: 1.08 | inactive: 0.763 | inactive: 1.12 |
